PubChem BioAssay AID1454 (National Center for Advancing Translational Sciences (NCATS), 2008)
The campaign covered roughly 130,000 compounds. About 550 (0.42%) were called active. This list was built around the results that the source calls inconclusive (neither active nor inactive); the mix of calls is not that of the screen. Calls come from the whole dose curve; as a rule, active = well fitted inhibition curve with a large enough effect; inconclusive = small, poorly fitted or top-dose-only effect, or effect the other way; inactive = flat fitted curve, though single readings scatter. Potencies of inconclusive entries are left out as doubtful fits.

experiment: qHTS Assay for Inhibitors of the ERK Signaling Pathway using a Homogeneous Screening Assay; Stimulation with EGF; details: HEK293-V1b, EGF-stimulated phospho-ERK AlphaScreen; activity change, negative = inhibition: at the top concentration; note: nearly all actives have a fitted effect of over 55% in size;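 for activity change, negative = inhibition: plate controls were stimulated vehicle wells for no effect and unstimulated vehicle basal for full effect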
In short: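 Compounds are titrated over HEK293-V1b cells kept overnight in 1% FBS. After 30 min at 37C, EGF (25 nM final) triggers ERK phosphorylation for 5 min, measured by AlphaScreen in lysates.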
Potency is the fitted concentration of half-maximal effect; tags give direction and shape of the fitted curve.

Which “activity change, negative = inhibition” value does the source give for `Cn1ncc2c(NNC(=O)c3ccccc3Cl)ncnc21` here?
Its value is inactive: 1.69%.

For `O=C1C=C(Nc2ccccc2)CC(c2ccccc2)C1` (stereo not drawn), which Potency is on record?
Its Potency is inconclusive [inhibitor, single point].

For `O=C(O)c1ccc(N/N=C/c2ccc(OC(=O)c3cccc(Cl)c3)cc2)cc1`, which Potency is on record?
Its Potency is inconclusive [inhibitor, single point].

Which Potency does the source give for `Cc1nc(NC2CCCCC2)c2nc(-c3ccccc3)n(CCN3CCCCC3)c2n1` here?
The Potency was inconclusive [inhibitor, partial curve, poor fit].

Which Potency does the source give for `COc1ccc(-c2[nH]ncc2N=Nc2ccccc2)cc1` here?
The Potency was inconclusive [inhibitor, single point].

Which Potency does the source give for `N#C/C(=C\c1cccc(O)c1)C(=O)Nc1ccc2c(c1)OCCO2` here?
The Potency was inconclusive [inhibitor, partial curve].

Which Potency does the source give for `CCCSC1=N/C(=C/c2ccsc2)C(=O)N1c1ccccc1` here?
The Potency was inconclusive [activator, single point].

With `COC(=O)N[C@@H](c1cccc(C)c1)C(C(C)=O)C(=O)OC` (stereo partly drawn) as the compound, how does the “activity change, negative = inhibition” value read?
The value was inactive: -1.12%.

With `Cc1cc(C)nc(NS(=O)(=O)c2ccc(NC(=O)C3COc4ccccc4O3)cc2)n1` (stereo not drawn) as the compound, how does the Potency read?
The Potency was inconclusive [activator, full curve, poor fit].

Which Potency does the source give for `Cc1cc(C(=O)CSc2nnnn2-c2ccccc2)c(C)n1-c1ccc2c(c1)OCO2` here?
Its Potency is inconclusive [inhibitor, partial curve].

For `O=C1c2cccc3cccc(c23)C(=O)N1CCCN1CCN(c2ccc(F)cc2)CC1`, which Potency is on record?
The Potency was inconclusive [inhibitor, partial curve].

Which Potency does the source give for `CC1CC2(C)Oc3ccccc3CC2C(C)C1CNCCCN(C)C` (stereo not drawn) here?
The Potency was inconclusive [inhibitor, single point].

For `CCOC(=O)C(=O)c1c(-c2ccc(C)cc2)nc2ccccn12`, which Potency is on record?
The Potency was inconclusive [inhibitor, single point].

Which Potency does the source give for `O=C(COc1cccc2cccnc12)N/N=C/c1cccn1-c1ccc(F)cc1` here?
The Potency was inconclusive [inhibitor, partial curve].

With `Cc1ccc(NCC(=O)N/N=C/c2cccc(Br)c2)cc1` as the compound, how does the Potency read?
The Potency was inconclusive [inhibitor, single point].

Which “activity change, negative = inhibition” value does the source give for `NS(=O)(=O)c1ccc(CCNC(=O)Cc2ccc(S(=O)(=O)N3CCCC3)s2)cc1` here?
Its value is inactive: 3.56% [at 57.5 µM].

With `CC1(C)CC(=O)C(CC(=O)N2CCC(Cc3ccccc3)CC2)C(=O)C1` as the compound, how does the “activity change, negative = inhibition” value read?
The value was inactive: 1.38%.

With `COc1ccc([N+](=O)[O-])c(S(=O)(=O)c2ccc(Cl)cc2)n1` as the compound, how does the Potency read?
Its Potency is inconclusive [inhibitor, single point].

For `CC[C@H](c1ccc(O)cc1)[C@@H](CC)c1ccc(O)cc1`, which “activity change, negative = inhibition” value is on record?
Its value is inactive: 3.67% [at 25.7 µM].

For `Nc1c2c(nc3ccc(Br)cc13)N(C1CCCCC1)CC2`, which Potency is on record?
Its Potency is inconclusive [inhibitor, partial curve].

For `COc1cc(OC)c2c(C)cc(=O)oc2c1C(CCN1CCN(c2ccccc2)CC1)c1ccc2c(c1)OCO2` (stereo not drawn), which Potency is on record?
The Potency was inconclusive [inhibitor, partial curve].

For `CC(C)(C)c1ccc(Oc2ccc(NC(=O)c3cccs3)cn2)cc1`, which Potency is on record?
The Potency was inconclusive [inhibitor, partial curve].

With `O=[N+]([O-])c1cccc(/C=N/N2CCN(Cc3ccc(Cl)cc3)CC2)c1` as the compound, how does the Potency read?
The Potency was inconclusive [inhibitor, partial curve].

Which “activity change, negative = inhibition” value does the source give for `CC(C)c1ccc(-c2nc(N3CCCCC3)[nH]c(=O)c2C#N)cc1` here?
Its value is inactive: 1.19%.

With `Cc1ccc(O)c(C(=O)c2cc(C#N)c3nc4ccccc4n3c2)c1` as the compound, how does the Potency read?
Its Potency is active: 31.6 µM.

For `COCC(=O)Nc1cc(Cl)ccc1C`, which “activity change, negative = inhibition” value is on record?
The value was inactive: -4.14%.

With `Nc1nc(C23CC4CC(CC(Cl)(C4)C2)C3)cs1` as the compound, how does the Potency read?
The Potency was inconclusive [inhibitor, partial curve, poor fit].

Which Potency does the source give for `Cc1ccc(S(=O)(=O)Oc2ccccc2/C=N/O)cc1` here?
The Potency was inconclusive [inhibitor, single point].

With `O=C(NCc1ccccc1)NC12CC3CC(CC(C3)C1)C2` as the compound, how does the Potency read?
Its Potency is inconclusive [inhibitor, single point].

Which Potency does the source give for `O=c1c(CCc2ccccc2)nc2cnc(N3CCNCC3)nc2n1CCc1ccccc1` here?
Its Potency is inconclusive [inhibitor, full curve, poor fit].

With `CCOC(=O)Cc1nnc(NC(=O)c2ccccc2OCC)s1` as the compound, how does the “activity change, negative = inhibition” value read?
Its value is inactive: 3.23%.

Which Potency does the source give for `CC1Cc2ccccc2N1C(=O)c1ccc(N2CCCCC2)c([N+](=O)[O-])c1` (stereo not drawn) here?
The Potency was inconclusive [inhibitor, partial curve].

For `C=CCN1C=C/C(=C\C=C(C#N)C#N)c2ccccc21`, which Potency is on record?
The Potency was inconclusive [inhibitor, partial curve, poor fit].

For `COc1ccc(CSc2nc3ccccc3c(=O)n2CCCN2CCOCC2)cc1F`, which “activity change, negative = inhibition” value is on record?
Its value is inactive: -0.707%.

Which “activity change, negative = inhibition” value does the source give for `O=C(O)[C@H]1CCCN(CCC=C(c2ccccc2)c2ccccc2)C1` here?
Its value is inactive: -2.91%.

Which Potency does the source give for `Cn1c(=O)n(Cc2ccco2)c(=N)c2c3c(sc21)CCCC3` here?
Its Potency is inconclusive [inhibitor, partial curve].

For `CCCS(=O)(=O)c1ccc(COC(=O)c2cccc(NC(=O)C(C)C)c2)cc1`, which Potency is on record?
Its Potency is inconclusive [inhibitor, partial curve].

With `Cc1cccc(NC(=S)NCCc2ccc3c(c2)OCCO3)c1C` as the compound, how does the Potency read?
Its Potency is inconclusive [inhibitor, single point].

Which Potency does the source give for `CSC1=NSC2=NC(=O)/C(=C\c3coc4ccccc4c3=O)C(=N)N12` here?
The Potency was inconclusive [inhibitor, single point].

Which Potency does the source give for `CCC(=O)O[C@H]1C(O[C@@H]2C(C)[C@H](O[C@H]3C[C@@](C)(OC)C(O)C(C)O3)C(C)C(=O)OC(CC)[C@@](C)(O)C(O)[C@H](C)C(=O)C(C)C[C@]2(C)O)OC(C)CC1N(C)C` (stereo partly drawn) here?
The Potency was inconclusive [inhibitor, single point].

With `C=CCOc1ccc(/C=C2\SC(=S)N(C(C(=O)O)c3ccccc3)C2=O)cc1` (stereo not drawn) as the compound, how does the “activity change, negative = inhibition” value read?
The value was inactive: 0.185% [at 57.5 µM].

For `CCN(CC)c1ccc(/C=C/c2cc(-c3ccccc3)c3ccccc3n2)cc1`, which Potency is on record?
Its Potency is inconclusive [activator, partial curve].

Which Potency does the source give for `COc1ccc(-c2[nH]nc3oc(=O)c(CCO)c(C)c23)cc1` here?
Its Potency is active: 15.8 µM.
